This passage reports inhibition results from PubChem BioAssay AID485344 (National Center for Advancing Translational Sciences (NCATS), 2010).

Structures are written as SMILES. The whole screen tested about 340,000 compounds, of which about 6,900 (2%) were called active. Cut-off read from the data, not from the text of the source: active = inhibition above about 30%; inactive = below that, where a call was filed. This is a selection; strong and weak results do not stand in their true shares. Entries without a call were filed so in the source.

The experiment concerns the target D(2) dopamine receptor (Homo sapiens) (UniProt P14416). The experiment is described as follows: HTS Assay for Allosteric Antagonists of the Human D2 Dopamine Receptor: Primary Screen for Antagonists. Note: 0% is about no effect. Particulars: HEK293 TREx D2 cells, calcium flux, dopamine EC80; at 10 µM; stronger effect = higher value. An outline of the steps: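 Tetracycline-induced HEK293 T-REx cells expressing D2 force-coupled to calcium signalling were dye-loaded, exposed to compound for 180 s, then challenged with an EC80 of dopamine; calcium flux was followed kinetically for a further 180 s.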
UniProt P14416, sequence (P14416 whole entry, looked up): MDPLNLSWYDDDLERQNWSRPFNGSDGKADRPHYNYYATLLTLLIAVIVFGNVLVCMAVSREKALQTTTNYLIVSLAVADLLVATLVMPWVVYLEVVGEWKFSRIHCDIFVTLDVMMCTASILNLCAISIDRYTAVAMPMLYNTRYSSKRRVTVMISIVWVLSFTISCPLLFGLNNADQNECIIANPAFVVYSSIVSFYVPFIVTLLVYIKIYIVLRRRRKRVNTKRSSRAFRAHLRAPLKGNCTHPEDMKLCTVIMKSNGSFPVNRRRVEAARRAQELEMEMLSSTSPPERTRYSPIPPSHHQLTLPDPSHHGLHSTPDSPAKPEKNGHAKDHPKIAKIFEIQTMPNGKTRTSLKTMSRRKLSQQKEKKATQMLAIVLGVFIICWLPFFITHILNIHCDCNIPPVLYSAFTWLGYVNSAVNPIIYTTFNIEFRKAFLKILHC
Usually inhibition stands for the relative decrease from the control value, in per cent. For `CCCCOc1cccc(C(=O)N(Cc2sccc2C)C2CCS(=O)(=O)C2)c1` (stereo not drawn), the inhibition was 7.75%. On to `Cc1cc(Nc2cccc(Cl)c2)nc2ccc(NC(=O)Cc3cccc(C(F)(F)F)c3)cc12`, for which the inhibition worked out at 1.28%. In the case of `COc1cc(C2CC(=O)Nc3cc4c(cc32)OCCO4)cc(Br)c1OC` (stereo not drawn) it was 4.48%; in that of `COc1ccc(Cn2c(=O)c3oc4ccccc4c3n(Cc3ccc(F)cc3)c2=O)cc1`, 10.7%. In the case of `COc1ccc(CNC(=O)c2ccc(NC(=O)N3CCCCc4ccccc43)cc2)cc1` it was 15.1%. In the case of `COc1ccc(CNC(=O)c2cc3c(=O)oc4ccc(C)cc4c3s2)c(OC)c1` it was 13.3%; in that of `Cc1cccc(NC(=O)C(=O)NCC(c2ccc3c(c2)OCO3)N2CCN(C)CC2)c1C` (stereo not drawn), -14%. On to `Fc1ccc(-c2noc3ncnc(NC4CCCCC4)c23)cc1`, for which the inhibition was found to be 3.09%. In the case of `CCc1ccccc1NC(=O)C1=C(C)C(=O)OC12CCCCCC2` it was -23.1%; in that of `COc1cc(CN2CCN(S(=O)(=O)c3ccccc3)CC2)cc(OC)c1O`, 3.75%; in that of `COc1ccc(CC(=O)NC(CC(=O)O)c2ccc(OC)cc2)cc1` (stereo not drawn), active: 36.5%.

Regarding `Cc1cc(=O)oc2cc(NC(=O)C(C)Oc3ccc(F)cc3)ccc12` (stereo not drawn), the inhibition is active: 35.3%.

Take `O=C(CNS(=O)(=O)c1cccs1)N1CCN(c2cccc(C(F)(F)F)c2)CC1`: the inhibition was 3.41%. For the compound `COc1ccc(CNC(=O)c2ccc(CS(=O)(=O)c3ccccc3OC)o2)cc1`, the inhibition is -2.03%. In the case of `O=C(NCCc1nc2ccccc2n1Cc1ccc(F)cc1)c1ccco1` it was 3.43%; in that of `CCN(CC)S(=O)(=O)c1ccc2c(c1)N(CC(=O)N1CCN(c3ccc(F)cc3)CC1)C(=O)CO2`, 3.53%; in that of `Cc1ccc(C)c(-c2[nH]c3c(c2-c2c(-n4cccc4)n(C)c(=O)[nH]c2=O)c(=O)[nH]c(=O)n3C)c1`, -1.28%. As for `Cc1ccc(-c2nc(CCNC(=O)C(=O)Nc3ccc(C)cc3C)cs2)cc1`, the figure is -10.4%.

Regarding `OCCN1CCN(c2ncnc3nc[nH]c23)CC1`, the inhibition is active: 33.9%.

Consider `N#CC1(NC(=O)COC(=O)C2=COCCO2)CCCCC1`, for which the inhibition is active: 50%. As for `COc1ccc(-n2cc(C(=O)NCc3ccccc3)c3ccccc3c2=O)cc1`, the inhibition stood at 11.6%. As for `O=C(CSc1nc2ccccc2n1Cc1ccccc1)N1CCN(c2ccc(F)cc2)CC1`, the figure is 5.95%.

With `CCCCN(C)C(=O)c1ccc(S(=O)(=O)N2CCOCC2)cc1`, the inhibition is active: 32.6%. Regarding `Cc1cc(Cl)ccc1NC(=O)c1cc(S(=O)(=O)N2CCOCC2)cn1C`, the inhibition was 2.46%.

With `O=C1CC(c2nc3ccccc3[nH]2)CN1c1cccc(Cl)c1` (stereo not drawn), the inhibition came to 5.82%.

With `CCCC(=O)N(c1ccc2oc3c(c2c1)CCCC3)S(=O)(=O)c1cc(C)ccc1C`, the inhibition was 14.2%.

On to `Cc1sc2nc3ccc(N4CCCCC4)nn3c(=O)c2c1C`, for which the inhibition is active: 36.9%.

With `CCCCNc1nc2c(c(=O)n(Cc3ccc(Cl)cc3)c(=O)n2C)n1C`, the inhibition was -8.09%. As for `COC(=O)c1ccc(CSc2nc3c([nH]c4ccccc43)c(=O)n2-c2ccc(Cl)cc2)o1`, the figure is 17.9%. In the case of `COc1ccc(S(=O)(=O)N2CCC(C(=O)NCc3ccc(C)cc3)CC2)cc1` it was active: 34.2%; in that of `COc1cccc(CSc2nc3cc(C(=O)NC4CCCC4)ccc3c(=O)n2Cc2ccccc2)c1`, 8.64%; in that of `Nc1nnc2c(n1)[nH]c1ccccc12`, 10.5%. Regarding `COc1cccc(N2CCN(C(=O)c3ccc(Cn4c(=O)[nH]c5cc(OC)c(OC)cc5c4=O)cc3)CC2)c1`, the inhibition was -3.39%. `CC1CCc2nc3ncn(Cc4ccccc4C#N)c(=O)c3cc2C1` (stereo not drawn): the inhibition was -7.95%. As for `Cc1ccc(S(=O)(=O)CCC(=O)O)cc1C`, the figure is active: 35.5%. For `O=C(c1ccc2c(c1)N(Cc1ccc(Cl)cc1)C(=O)c1ccccc1S2=O)N1CCOCC1` (stereo not drawn), the inhibition was -15.4%. For `Cc1cc(C)c2c(CC(=O)N3CCN(c4cccc(Cl)c4)CC3)coc2c1`, the inhibition was -12%.

In the case of `CCc1ccc(CNc2ncnc3c2nc2n3CCCC2)cc1`, the inhibition was -0.173%. As to `CCc1cccc(NC(=O)Cn2c(=O)ccc3cc(S(=O)(=O)N4CCC(C)CC4)ccc32)c1`, the inhibition was 14.8%. In the case of `CCOc1ccccc1N1CC(c2nc3ccccc3n2CCOc2ccccc2)CC1=O` (stereo not drawn) it was 5.26%. As for `Cc1c(O)ccc(NC(=O)/C=C/c2ccccc2)c1C`, the figure is active: 35%; as for `O=C(CSc1cn(CC(=O)N2CCOCC2)c2ccccc12)Nc1ccccc1F`, 21.7%; as for `Cc1ccc(S(=O)(=O)Nc2ccc3c(c2)CCCN3C(=O)c2cccs2)cc1`, 3.47%. Regarding `O=C(Nc1ccc2nn(-c3ccccc3)nc2c1)c1cc2ccccc2o1`, the inhibition is -0.583%. In the case of `COc1ccc2oc(=O)cc(CN3CCN(Cc4ccccc4)CC3)c2c1` it was -18.3%; in that of `CC(=O)N1Cc2ccccc2C(C)CC12CCCC2` (stereo not drawn), active: 31.2%. In the case of `CCOc1ccc(S(=O)(=O)N2CCCCC2)cc1NC(=O)Cc1ccsc1` it was active: 33.9%.

For the compound `Cc1c(Cl)cccc1NC(=O)c1cnc2sc(N3CCOCC3)nn2c1=O`, the inhibition was -11.1%. In the case of `CCN(c1ccccc1)S(=O)(=O)c1ccc(NC(=O)c2cc(=O)c3cc(C)cc(C)c3o2)cc1` it was -11.5%; in that of `CCC(=O)N1c2ccccc2CC1C(=O)NCCc1ccccc1C` (stereo not drawn), 12.2%.

For the compound `Cc1ccc(C)c(NC(=O)c2cnn(-c3cccc(F)c3)c2C2CCN(C(=O)OC(C)(C)C)CC2)c1`, the inhibition came out at 3.15%. In the case of `CCOc1ccc(NS(=O)(=O)c2ccc(-c3cc(C)no3)s2)cc1` it was 3.14%; in that of `CC(C)Oc1ccc(CNC(=O)CCCN2C(=O)c3cccnc3Oc3ccc(Cl)cc32)cc1`, -8.77%; in that of `CCN(C(=O)c1cc2c(s1)-c1c(C)cccc1OC2)c1ccccc1F`, -0.648%. In the case of `COc1ccc(CC(=O)N2CCc3cc(OC)c(OC)cc3C2COc2ccc(OC)cc2)cc1` (stereo not drawn) it was 20.4%. In the case of `CCC(=O)N1CCc2cc(Br)cc(S(=O)(=O)Nc3ccc(C)cc3C)c21` it was -3.59%.

With `CCCCn1c2ccccc2c2nnc(SCC(=O)NC3=NN=C(c4ccccc4)CS3)nc21`, the inhibition was active: 69.6%. In the case of `CCOC(=O)c1scc(-c2ccccc2)c1S(=O)(=O)Nc1cc(OC)cc(OC)c1` it was -12.2%; in that of `CCC1CN(C(=O)N2CCC(C(=O)NCCN(CC)CC)CC2)c2cc(C)ccc2O1` (stereo not drawn), 2.25%. As for `Brc1ccccc1OCCNCc1ccccc1`, the figure is active: 94%; as for `CCc1nc2ccccc2n1CCCCOc1ccc(C)cc1`, -0.921%. In the case of `CCOc1cc(CNC(=O)c2sc3ncnc(N(C)C4CCCCC4)c3c2C)ccc1OC` it was -5.35%; in that of `CC(=O)c1ccc(NC(=O)Cn2cc(S(=O)(=O)Cc3cccc(Cl)c3)c3ccccc32)cc1`, 1.49%.
